Assay results from the supplement of paper PMC12217912.
This is one part of the list. The full chains were built here from the parent and the listed change. Inactive controls read about 0.05.

B1: TEV protease; numbered along this chain (parent)
chain: MGESLFKGPRDYNPISSSICHLTNESDGHTTSLYGIGFGPFIITNKHLFRRNNGTLVVQSLHGVFKVKDTTTLQQHLVDGRDMIIIRMPKDFPPFPQKLKFREPQREERICLVTTNFQTKSMSSMVSDTSCTFPSGDGIFWKHWIQTKDGQCGSPLVSTRDGFIVGIHSASNFTNTNNYFTSVPKNFMELLTNQEAQQWVSGWRLNADSVLWGGHKVFMVKPEEPFQPVKEATQL

Variants of: B1
Experiment: raw area under fraction-flipped curve 0-4 h after induction (AUC4h, not background-subtracted), DNA-recorder readout of cleavage of the substrate (dimensionless); higher = more cleavage of the substrate by the protease variant
Conditions: temperature: 34 °C; time window: 0-4 h after rhamnose induction
Description: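 In vivo DNA recorder in E. coli TOP10(DE3) ΔrhaA at 34 °C. Each TEVp single-site mutant (parent TEVp 0) is paired with a single-site variant of the 7-mer TEVs (canonical ENLYFQ|S). The substrate sits between flexible linkers in a Bxb1-sfGFP-TEVs-SsrA fusion, so cleavage stabilises Bxb1 and speeds flipping of a recombination array, read by NGS. The value is the raw area under the fraction-flipped curve over 0-4 h after rhamnose induction (AUC4h), with ≥20 reads per time point. It is not background-subtracted; inactive controls average about 0.047.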
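Note: Bxb1 expression induced with 0.2% (w/v) L-rhamnose at OD600 near 0.5, cultures sampled hourly, flipped fraction per protease–substrate barcode pair counted by paired-end Illumina sequencing.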

Variant | area with substrate ENAYFQS | area with substrate ENCYFQS | area with substrate ENDYFQS | area with substrate ENEYFQS | area with substrate ENFYFQS | area with substrate ENGYFQS | area with substrate ENHYFQS | area with substrate ENIYFQS | area with substrate ENKYFQS | area with substrate ENNYFQS | area with substrate ENPYFQS | area with substrate ENQYFQS | area with substrate ENRYFQS | area with substrate ENSYFQS | area with substrate ENTYFQS | area with substrate ENVYFQS | area with substrate ENWYFQS | area with substrate ENYYFQS | area with substrate ENMYFQS
K148W | 0.0627 | 0.0593 | 0.0617 | 0.0556 | 0.0985 | 0.0633 | 0.0635 | 0.0976 | 0.0656 | 0.0638 | 0.0458 | 0.0523 | 0.0667 | 0.0675 | 0.0655 | 0.0499 | 0.0532 | 0.0687 | 
G150P | 0.0505 | 0.0569 | 0.0465 | 0.0568 | 0.068 | 0.0707 |  | 0.104 | 0.0705 | 0.0626 | 0.0746 | 0.0553 | 0.0534 | 0.0611 | 0.0593 | 0.0627 |  | 0.0568 | 0.0592
G150Q | 0.0495 |  | 0.0637 | 0.0582 | 0.0547 |  |  |  |  | 0.0748 | 0.0729 | 0.059 | 0.0442 | 0.0783 | 0.0635 |  |  | 0.0659 | 0.0631
Q151G | 0.0481 | 0.0434 | 0.0664 | 0.0531 |  |  | 0.0484 | 0.0781 |  |  | 0.0521 | 0.0602 | 0.0772 | 0.0667 | 0.0529 |  | 0.0055 |  | 0.0598
G153P | 0.0408 | 0.0506 |  | 0.0517 | 0.0596 | 0.0399 | 0.0423 |  | 0.0283 | 0.0432 | 0.0321 | 0.0547 |  | 0.0424 | 0.048 | 0.0465 |  | 0.0538 | 0.0372
S154C | 0.0607 | 0.0768 | 0.0482 | 0.059 | 0.0657 | 0.0637 | 0.0529 |  | 0.0617 | 0.0762 |  | 0.0462 | 0.0674 | 0.105 |  | 0.0789 |  | 0.0686 | 0.0742
S154L | 0.0486 | 0.0773 |  |  | 0.0705 | 0.083 | 0.0387 | 0.162 | 0.0491 | 0.0717 |  | 0.0688 |  | 0.0638 | 0.0754 |  | 0.0667 |  | 0.0915
S154R | 0.0558 | 0.0646 | 0.0674 | 0.057 | 0.075 | 0.0557 | 0.0629 | 0.0791 | 0.0672 |  | 0.0507 | 0.0597 | 0.0561 | 0.0582 | 0.0644 | 0.0558 |  | 0.0666 | 0.0645
P155H | 0.034 | 0.0578 | 0.0494 | 0.0516 | 0.0576 | 0.0378 |  | 0.0478 |  |  |  | 0.0321 | 0.0635 | 0.0596 |  | 0.0596 | 0.0535 |  | 
P155N | 0.0781 | 0.0561 | 0.0433 | 0.0431 | 0.0419 | 0.0535 | 0.0465 |  | 0.0414 | 0.0644 | 0.0404 | 0.0523 | 0.0347 | 0.0629 |  | 0.0499 | 0.0426 |  | 0.0841
P155V | 0.0492 | 0.0632 | 0.0531 | 0.0656 | 0.0596 | 0.0668 |  | 0.0876 | 0.0463 | 0.054 |  | 0.0606 | 0.0633 | 0.0451 |  | 0.0944 |  | 0.0533 | 
L156C | 0.0702 | 0.082 | 0.0338 |  | 0.0632 |  |  |  |  |  |  | 0.0595 |  | 0.0617 | 0.075 |  |  | 0.0681 | 0.0832
